The list shows a part of the results.
The compounds below were run on HepG2 (assay: cytotoxicity call (relative viability < 0.9)). Settings: 10 µM.
In the case of `C[C@@H]1CN([C@@H](C)CO)C(=O)Cc2cc(NC(=O)CCCCCC(=O)Nc3ccccc3N)ccc2O[C@@H]1CN(C)S(=O)(=O)c1cn(C)cn1`, the cytotoxicity call was “inactive”.
With `Cc1noc(C)c1NC(=O)Nc1ccc2c(c1)C(=O)N([C@@H](C)CO)C[C@H](C)[C@H](CN(C)S(=O)(=O)c1cccs1)OCCCC[C@H](C)O2` the cytotoxicity call was “inactive”.
With `C[C@@H]1CN([C@H](C)CO)S(=O)(=O)c2ccc(C3=CCCC3)cc2O[C@H]1CN(C)C(=O)C1CCOCC1` the cytotoxicity call was “inactive”.
With `Nc1nonc1C(=O)N1CCCCC1` the cytotoxicity call was “inactive”.
In the case of `O=C(C[C@H]1CC[C@H]2[C@@H](COC[C@H](O)CN2C(=O)c2ccncc2)O1)NCc1ccc(-c2ccccc2)cc1`, the cytotoxicity call was “inactive”.
In the case of `COc1ccc([C@H]2[C@@H](C(N)=O)C2(C#N)C#N)cc1`, the cytotoxicity call was “inactive”.
For `O=C(CCCCCCC(=O)Nc1ccc([C@H]2O[C@@H](CSc3ccncc3)C[C@@H](c3ccccc3)O2)cc1)NO`, the cytotoxicity call was “inactive”.
`COc1ccc(S(=O)(=O)Nc2ccc3c(c2)C(=O)N([C@@H](C)CO)C[C@H](C)[C@@H](CN(C)S(=O)(=O)c2ccc(C)cc2)O3)cc1` was tested, and the cytotoxicity call was “inactive”.
In the case of `Cc1nc(CSCc2ccc(Cl)cc2Cl)cs1`, the cytotoxicity call was “inactive”.
`C[C@H]1CCCCO[C@@H](CN(C)C(=O)C2CCCCC2)[C@@H](C)CN([C@@H](C)CO)C(=O)c2cc(NS(=O)(=O)c3cccs3)ccc2O1` was tested, and the cytotoxicity call was “inactive”.
For `OC[C@H]1O[C@@H](S[C@@H]2O[C@H](CO)[C@H](O)[C@H](n3cc(-c4cccc(F)c4)nn3)[C@H]2O)[C@H](O)[C@@H](n2cc(-c3cccc(F)c3)nn2)[C@H]1O`, the cytotoxicity call was “inactive”.
In the case of `C[C@H](CO)N1C[C@H](C)[C@H](CN(C)S(=O)(=O)c2ccc(F)cc2)Oc2c(NS(=O)(=O)c3cn(C)cn3)cccc2C1=O`, the cytotoxicity call was “inactive”.
With `COC(=O)[C@@H]1CCCC1=O` the cytotoxicity call was “inactive”.
In the case of `CS(=O)(=O)Nc1ccc2c(c1)[C@@H]1C[C@@H](CC(=O)NCC3CC3)O[C@H](CO)[C@@H]1O2`, the cytotoxicity call was “inactive”.
In the case of `C[C@@H]1CC[C@H](C)N1c1cc(C(F)(F)F)cc(C(F)(F)F)c1`, the cytotoxicity call was “inactive”.
For `CC(C)NC(=O)N(C)C[C@@H]1Oc2c(NC(=O)C3CCCCC3)cccc2C(=O)N([C@H](C)CO)C[C@@H]1C`, the cytotoxicity call was “inactive”.
With `COc1ccc(S(=O)(=O)Nc2ccc3c(c2)C(=O)N([C@H](C)CO)C[C@@H](C)[C@@H](CN(C)Cc2ccccc2)OCCCC[C@H](C)O3)cc1` the cytotoxicity call was “inactive”.
In the case of `C[C@@H]1CCCCO[C@@H](CN(C)S(=O)(=O)c2ccc(Cl)cc2)[C@H](C)CN([C@H](C)CO)C(=O)c2cc(NC(=O)Nc3ccccc3)ccc2O1`, the cytotoxicity call was “inactive”.
For `Cc1ccc(S(=O)(=O)Nc2ccc3c(c2)CC(=O)N([C@H](C)CO)C[C@@H](C)[C@H](CN(C)S(=O)(=O)c2ccc(F)cc2)O3)cc1`, the cytotoxicity call was “inactive”.
With `CC(C)NC(=O)Nc1ccc2c(c1)C(=O)N([C@@H](C)CO)C[C@H](C)[C@@H](CN(C)S(C)(=O)=O)OCCCC[C@H](C)O2` the cytotoxicity call was “inactive”.
`Cc1noc(C)c1NC(=O)Nc1ccc2c(c1)C(=O)N([C@H](C)CO)C[C@H](C)[C@H](CN(C)Cc1ccc(Cl)c(Cl)c1)O2` was tested, and the cytotoxicity call was “inactive”.
`CC(C)NC(=O)Nc1ccc2c(c1)C(=O)N([C@H](C)CO)C[C@@H](C)[C@H](CN(C)C(=O)NC1CCCCC1)O2` was tested, and the cytotoxicity call was “inactive”.
In the case of `C[C@@H]1CCCCO[C@H](CN(C)C(=O)Nc2ccc(C(F)(F)F)cc2)[C@H](C)CN([C@@H](C)CO)C(=O)c2cc(NS(=O)(=O)c3ccc(F)cc3)ccc2O1`, the cytotoxicity call was “active”.
`Cc1noc(C)c1NC(=O)N(C)C[C@@H]1Oc2ccc(NS(=O)(=O)c3cccs3)cc2CC(=O)N([C@@H](C)CO)C[C@H]1C` was tested, and the cytotoxicity call was “inactive”.
`COc1ccc2c3c([nH]c2c1)[C@@H](CO)N(C[C@]13CCN(CC1)C(=O)c1ccncc1)C(=O)c1ccncc1` was tested, and the cytotoxicity call was “inactive”.
For `Cc1ccc(S(=O)(=O)Nc2ccc3c(c2)C(=O)N([C@H](C)CO)C[C@@H](C)[C@H](CN(C)Cc2ccc(C(F)(F)F)cc2)O3)cc1`, the cytotoxicity call was “active”.
In the case of `C[C@H](CO)N1C[C@H](C)[C@H](CN(C)C)OCCCC[C@H](C)Oc2ccc(NC(=O)Nc3ccc(C(F)(F)F)cc3)cc2C1=O`, the cytotoxicity call was “inactive”.
For `COCC#Cc1ccc2c(c1)O[C@H](CN(C)C(=O)C1CCCCC1)[C@@H](C)CN([C@H](C)CO)S2(=O)=O`, the cytotoxicity call was “inactive”.
For `COc1ccccc1C#Cc1cnc2c(c1)C(=O)N([C@H](C)CO)C[C@H](C)[C@H](CN(C)C(=O)c1ccc3c(c1)OCO3)O2`, the cytotoxicity call was “inactive”.
With `CCN(CC)CCOCCOC(=O)C(CC)(CC)c1ccccc1.O=C(O)CC(O)(CC(=O)O)C(=O)O` the cytotoxicity call was “inactive”.
With `C[C@@H]1CCCCO[C@@H](CN(C)Cc2ccc(C(F)(F)F)cc2)[C@@H](C)CN([C@@H](C)CO)C(=O)c2cc(NC(=O)CCC(F)(F)F)ccc2O1` the cytotoxicity call was “inactive”.
For `CC(C)NC(=O)N(C)C[C@@H]1Oc2ccc(NC(=O)NC3CCCCC3)cc2C(=O)N([C@H](C)CO)C[C@H]1C`, the cytotoxicity call was “inactive”.
`Cc1ccc(S(=O)(=O)N(C)C[C@@H]2Oc3ncc(Br)cc3C(=O)N([C@H](C)CO)C[C@H]2C)cc1` was tested, and the cytotoxicity call was “inactive”.
`C[C@@H]1CN([C@H](C)CO)C(=O)c2cccc(NC(=O)c3ccc(-c4nccs4)cc3)c2O[C@H]1CN(C)S(C)(=O)=O` was tested, and the cytotoxicity call was “inactive”.
In the case of `COc1ccc(S(=O)(=O)Nc2ccc3c(c2)C(=O)N([C@H](C)CO)C[C@@H](C)[C@@H](CN(C)Cc2ccc4c(c2)OCO4)OCCCC[C@H](C)O3)cc1`, the cytotoxicity call was “inactive”.
With `CC1=CC(=O)C2=C(C)CCC3C(C)C(=O)OC3C12` (stereo not given) the cytotoxicity call was “inactive”.
For `Cc1noc(C)c1NC(=O)Nc1ccc2c(c1)C(=O)N([C@@H](C)CO)C[C@@H](C)[C@H](CN(C)Cc1ccc(Cl)c(Cl)c1)O2`, the cytotoxicity call was “inactive”.
For `O=c1cc(CO)occ1O`, the cytotoxicity call was “inactive”.
For `C[C@@H]1CN([C@@H](C)CO)S(=O)(=O)c2ccc(C#CCC3CCCC3)cc2O[C@@H]1CN(C)C(=O)CN(C)C`, the cytotoxicity call was “active”.
In the case of `C[C@@H]1CN([C@H](C)CO)C(=O)c2cc(NC(=O)Nc3ccccc3)ccc2O[C@@H](C)CCCCO[C@H]1CN(C)S(=O)(=O)c1cccs1`, the cytotoxicity call was “inactive”.

From the antibiotic and cytotoxicity screens of Wong et al. (2023)
